Measurements published in article PMC6637204, “Inactivating mutations and X-ray crystal structure of the tumor suppressor OPCML reveal cancer-associated functions” (Nature Communications, 2019).
No constants are given. Whether binding was seen depends on the method and setting. For some assays here: Binding seen in cells or lysates may run through a third protein. Some binding calls cover weakened binding; strength is not graded here. For some assays here: Where a sequence is shown, tags or fusion partners need not be part of it.

Chains of the proteins cited; added tags and fusions are not shown. Lines headed by an entry give the natural chain unless they say otherwise; changes in a name come on top. Residues count along the entry.
UniProt P11362: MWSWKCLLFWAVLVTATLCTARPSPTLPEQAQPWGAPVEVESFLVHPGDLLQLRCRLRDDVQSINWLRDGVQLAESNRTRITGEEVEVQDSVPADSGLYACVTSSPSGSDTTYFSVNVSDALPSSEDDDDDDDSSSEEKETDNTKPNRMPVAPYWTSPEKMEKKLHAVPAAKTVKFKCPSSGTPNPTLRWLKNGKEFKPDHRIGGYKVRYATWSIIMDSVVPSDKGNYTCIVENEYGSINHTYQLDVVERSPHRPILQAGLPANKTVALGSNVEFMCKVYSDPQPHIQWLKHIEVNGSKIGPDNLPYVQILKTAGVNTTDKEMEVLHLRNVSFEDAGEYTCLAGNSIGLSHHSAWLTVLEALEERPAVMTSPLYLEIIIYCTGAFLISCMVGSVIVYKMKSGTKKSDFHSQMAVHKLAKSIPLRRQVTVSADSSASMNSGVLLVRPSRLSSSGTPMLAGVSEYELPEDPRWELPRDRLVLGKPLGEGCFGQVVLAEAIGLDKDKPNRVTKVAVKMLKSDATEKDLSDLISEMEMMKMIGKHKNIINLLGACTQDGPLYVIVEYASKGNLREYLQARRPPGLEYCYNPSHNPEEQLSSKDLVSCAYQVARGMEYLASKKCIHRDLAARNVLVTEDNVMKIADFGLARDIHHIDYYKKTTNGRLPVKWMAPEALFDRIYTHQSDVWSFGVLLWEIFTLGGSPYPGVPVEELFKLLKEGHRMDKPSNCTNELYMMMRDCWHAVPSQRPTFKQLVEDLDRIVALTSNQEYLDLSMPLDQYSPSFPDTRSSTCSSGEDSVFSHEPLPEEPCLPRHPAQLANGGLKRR
FGFR1 in SKOV3 cells (human (endogenous in SKOV3)): residues 22-822 of P11362
UniProt P30530: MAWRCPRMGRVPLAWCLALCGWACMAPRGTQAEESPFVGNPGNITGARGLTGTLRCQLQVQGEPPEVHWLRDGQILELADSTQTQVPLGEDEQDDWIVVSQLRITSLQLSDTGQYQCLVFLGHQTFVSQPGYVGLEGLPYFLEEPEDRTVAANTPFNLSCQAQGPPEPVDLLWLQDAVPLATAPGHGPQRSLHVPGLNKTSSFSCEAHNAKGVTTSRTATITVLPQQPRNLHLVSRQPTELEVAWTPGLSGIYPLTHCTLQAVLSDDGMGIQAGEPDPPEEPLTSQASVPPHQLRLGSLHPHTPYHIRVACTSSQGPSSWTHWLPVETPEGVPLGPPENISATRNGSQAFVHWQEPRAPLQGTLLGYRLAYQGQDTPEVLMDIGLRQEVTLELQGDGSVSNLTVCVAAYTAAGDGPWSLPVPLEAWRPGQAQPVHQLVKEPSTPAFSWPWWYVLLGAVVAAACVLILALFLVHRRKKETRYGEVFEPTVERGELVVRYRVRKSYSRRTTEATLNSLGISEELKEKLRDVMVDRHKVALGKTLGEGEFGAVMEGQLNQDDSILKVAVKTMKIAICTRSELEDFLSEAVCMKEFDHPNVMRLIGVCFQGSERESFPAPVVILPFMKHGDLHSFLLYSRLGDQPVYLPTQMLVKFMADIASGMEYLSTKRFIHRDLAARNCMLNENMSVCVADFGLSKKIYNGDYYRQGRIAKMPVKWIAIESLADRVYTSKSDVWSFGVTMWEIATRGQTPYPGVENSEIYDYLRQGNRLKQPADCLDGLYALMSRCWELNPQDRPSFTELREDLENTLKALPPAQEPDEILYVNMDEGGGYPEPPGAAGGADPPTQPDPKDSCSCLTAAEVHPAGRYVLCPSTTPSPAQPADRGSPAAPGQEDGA
AXL in SKOV3 and HCT116 cells (human (endogenous in SKOV3 and HCT116)): residues 26-894 of P30530

Legend:
[1] = biological target: T1, OPCML in the pM vector (GAL4 DNA binding domain fusion) (human) (UniProt Q14982); assay: two-hybrid; mammalian 2-hybrid in COS-1 cells; OPCML in pM (GAL4 DNA binding domain), receptor extracellular domains in pVP16; pGAL4 Luc reporter, normalized to beta-galactosidase
T1 sequence: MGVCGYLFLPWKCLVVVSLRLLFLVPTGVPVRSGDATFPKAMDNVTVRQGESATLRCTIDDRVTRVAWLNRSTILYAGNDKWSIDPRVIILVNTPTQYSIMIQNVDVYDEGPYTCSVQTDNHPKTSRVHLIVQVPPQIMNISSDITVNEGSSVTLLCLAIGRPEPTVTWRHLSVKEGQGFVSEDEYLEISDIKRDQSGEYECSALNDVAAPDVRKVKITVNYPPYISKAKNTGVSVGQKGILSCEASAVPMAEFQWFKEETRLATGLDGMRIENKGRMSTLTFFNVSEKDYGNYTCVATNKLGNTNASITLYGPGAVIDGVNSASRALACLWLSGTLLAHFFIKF

[2] = biological target: T2, OPCML P95R in the pM vector (GAL4 DNA binding domain fusion) (human) (UniProt Q14982); assay: as above
T2 sequence: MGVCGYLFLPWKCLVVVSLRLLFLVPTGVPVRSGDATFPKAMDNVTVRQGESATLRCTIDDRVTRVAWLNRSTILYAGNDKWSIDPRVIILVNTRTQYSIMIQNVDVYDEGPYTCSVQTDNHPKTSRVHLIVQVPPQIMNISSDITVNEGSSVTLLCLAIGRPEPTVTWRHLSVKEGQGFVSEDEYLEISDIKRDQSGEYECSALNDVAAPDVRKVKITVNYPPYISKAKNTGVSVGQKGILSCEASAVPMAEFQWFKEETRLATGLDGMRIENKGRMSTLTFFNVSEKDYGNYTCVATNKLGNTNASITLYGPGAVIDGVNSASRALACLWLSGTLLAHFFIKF

[3] = biological target: FGFR1 in SKOV3 cells (human (endogenous in SKOV3)) (UniProt P11362); assay: proximity ligation; DuoLink PLA on fixed SKOV3 cells expressing WT or mutant OPCML; unstimulated or stimulated with GAS6 (AXL; 30 min, 3 h or 12 h) or FGF1 (FGFR1; 30 min or 3 h); mouse anti-OPCML and rabbit anti-receptor antibodies
[4] = biological target: AXL in SKOV3 and HCT116 cells (human (endogenous in SKOV3 and HCT116)) (UniProt P30530); assay: as above
[5] = biological target: OPCML R65L expressed in transduced cancer cells (human) (UniProt Q14982); assay: SDS-PAGE without heat denaturation, western blot; extracts of transduced cells run without prior heat denaturation, anti-OPCML blot
[6] = biological target: soluble recombinant OPCML R65L (residues 36-316) (human) (UniProt Q14982); assay: SEC; gel filtration; dilutions equilibrated 24 h, 50 µL on Superdex 200 10/30 GL at 0.5 mL/min; peak elution volume against concentration fit to a monomer-dimer equilibrium (dimer to monomers); both purified
[7] = biological target: soluble recombinant OPCML R65L (residues 36-316) (human) (UniProt Q14982); assay: SEC-MALLS; samples at 1 µg/µL, 1 mL/min in PBS pH 7.4, room temperature; both purified

Molecule: extracellular domain of FGFR1 in the pVP16 vector (VP16 activation domain fusion) (from UniProt P11362 22-376) (domain or fragment)
- binding [1]: binds
- binding [2]: binds

Molecule: extracellular domain of AXL in the pVP16 vector (VP16 activation domain fusion) (from UniProt P30530 26-451) (domain or fragment)
- binding [1]: binds
- binding [2]: no binding

B1: wild-type OPCML expressed in transduced cancer cells (natural protein, human, UniProt Q14982 28-322, looked up)
chain: GVPVRSGDATFPKAMDNVTVRQGESATLRCTIDDRVTRVAWLNRSTILYAGNDKWSIDPRVIILVNTPTQYSIMIQNVDVYDEGPYTCSVQTDNHPKTSRVHLIVQVPPQIMNISSDITVNEGSSVTLLCLAIGRPEPTVTWRHLSVKEGQGFVSEDEYLEISDIKRDQSGEYECSALNDVAAPDVRKVKITVNYPPYISKAKNTGVSVGQKGILSCEASAVPMAEFQWFKEETRLATGLDGMRIENKGRMSTLTFFNVSEKDYGNYTCVATNKLGNTNASITLYGPGAVIDGVN
notes: OPCML, human, WT cDNA from pENTR4 shuttled to pLenti CMV Puro DEST; GPI-anchored, membrane-localized; also called WT OPCML; WT; source: SKOV3, PEA1, PEO1 and HCT116 cells, stably transduced (lentivirus, pLenti CMV Puro DEST); on cells or in lysate
- binding [3]: binds
- binding [4]: binds

B2: OPCML P95L expressed in transduced SKOV3 cells (protein, UniProt Q14982 28-322)
chain: GVPVRSGDATFPKAMDNVTVRQGESATLRCTIDDRVTRVAWLNRSTILYAGNDKWSIDPRVIILVNTLTQYSIMIQNVDVYDEGPYTCSVQTDNHPKTSRVHLIVQVPPQIMNISSDITVNEGSSVTLLCLAIGRPEPTVTWRHLSVKEGQGFVSEDEYLEISDIKRDQSGEYECSALNDVAAPDVRKVKITVNYPPYISKAKNTGVSVGQKGILSCEASAVPMAEFQWFKEETRLATGLDGMRIENKGRMSTLTFFNVSEKDYGNYTCVATNKLGNTNASITLYGPGAVIDGVN
- binding [4]: no binding

B3: OPCML P95R expressed in transduced cancer cells (protein, UniProt Q14982 28-322)
chain: GVPVRSGDATFPKAMDNVTVRQGESATLRCTIDDRVTRVAWLNRSTILYAGNDKWSIDPRVIILVNTRTQYSIMIQNVDVYDEGPYTCSVQTDNHPKTSRVHLIVQVPPQIMNISSDITVNEGSSVTLLCLAIGRPEPTVTWRHLSVKEGQGFVSEDEYLEISDIKRDQSGEYECSALNDVAAPDVRKVKITVNYPPYISKAKNTGVSVGQKGILSCEASAVPMAEFQWFKEETRLATGLDGMRIENKGRMSTLTFFNVSEKDYGNYTCVATNKLGNTNASITLYGPGAVIDGVN
- binding [3]: binds
- binding [4]: no binding

B4: OPCML R65L expressed in transduced cancer cells (protein, UniProt Q14982 28-322)
chain: GVPVRSGDATFPKAMDNVTVRQGESATLRCTIDDRVTLVAWLNRSTILYAGNDKWSIDPRVIILVNTPTQYSIMIQNVDVYDEGPYTCSVQTDNHPKTSRVHLIVQVPPQIMNISSDITVNEGSSVTLLCLAIGRPEPTVTWRHLSVKEGQGFVSEDEYLEISDIKRDQSGEYECSALNDVAAPDVRKVKITVNYPPYISKAKNTGVSVGQKGILSCEASAVPMAEFQWFKEETRLATGLDGMRIENKGRMSTLTFFNVSEKDYGNYTCVATNKLGNTNASITLYGPGAVIDGVN
- binding [3]: no binding
- binding [4]: no binding
- binding [5]: no binding

B5: OPCML P95S expressed in transduced SKOV3 cells (protein, UniProt Q14982 28-322)
chain: GVPVRSGDATFPKAMDNVTVRQGESATLRCTIDDRVTRVAWLNRSTILYAGNDKWSIDPRVIILVNTSTQYSIMIQNVDVYDEGPYTCSVQTDNHPKTSRVHLIVQVPPQIMNISSDITVNEGSSVTLLCLAIGRPEPTVTWRHLSVKEGQGFVSEDEYLEISDIKRDQSGEYECSALNDVAAPDVRKVKITVNYPPYISKAKNTGVSVGQKGILSCEASAVPMAEFQWFKEETRLATGLDGMRIENKGRMSTLTFFNVSEKDYGNYTCVATNKLGNTNASITLYGPGAVIDGVN
- binding [4]: no binding

B6: OPCML N70H expressed in transduced cancer cells (protein, UniProt Q14982 28-322)
chain: GVPVRSGDATFPKAMDNVTVRQGESATLRCTIDDRVTRVAWLHRSTILYAGNDKWSIDPRVIILVNTPTQYSIMIQNVDVYDEGPYTCSVQTDNHPKTSRVHLIVQVPPQIMNISSDITVNEGSSVTLLCLAIGRPEPTVTWRHLSVKEGQGFVSEDEYLEISDIKRDQSGEYECSALNDVAAPDVRKVKITVNYPPYISKAKNTGVSVGQKGILSCEASAVPMAEFQWFKEETRLATGLDGMRIENKGRMSTLTFFNVSEKDYGNYTCVATNKLGNTNASITLYGPGAVIDGVN
- binding [3]: binds
- binding [4]: binds

B7: soluble recombinant OPCML R65L (residues 36-316) (domain or fragment, human, UniProt Q14982 36-316, looked up)
chain: ATFPKAMDNVTVRQGESATLRCTIDDRVTLVAWLNRSTILYAGNDKWSIDPRVIILVNTPTQYSIMIQNVDVYDEGPYTCSVQTDNHPKTSRVHLIVQVPPQIMNISSDITVNEGSSVTLLCLAIGRPEPTVTWRHLSVKEGQGFVSEDEYLEISDIKRDQSGEYECSALNDVAAPDVRKVKITVNYPPYISKAKNTGVSVGQKGILSCEASAVPMAEFQWFKEETRLATGLDGMRIENKGRMSTLTFFNVSEKDYGNYTCVATNKLGNTNASITLYGPGA
notes: OPCML, human, UniProt Q14982, residues 36-316 (D1-D3), clinical somatic mutation R65L; Same construct as m1 with R65L; PDB 5UV6 is the wild-type parent; ALVPR probably left at the C-terminus after thrombin (surmised); also called rR65L; source: Hi5 insect cells, baculovirus, secreted; purified (protein A, thrombin digestion, negative protein A, HiTrap Q, SEC); not shown: Fc (human IgG1, UniProt …)
- binding [6]: no binding (tested: 32 μM)
- binding [7]: no binding (tested: 1 µg µL^−1)
